Results taken from article PMC4336329 (PLoS ONE, 2015).
Out of some 310,000 compounds screened, about 14,000 (4.5%) showed an effect of 50% or more. Effects have a minus sign here. This is one part of the list.

Biological target: human ether-à-go-go-related gene (hERG) potassium channel (human, UniProt Q12809)
Experiment: primary screen, population patch clamp on CHO cells stably expressing hERG
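Also: peak tail current of the secondary pulse compared with the same well before compound.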

Chain of human ether-à-go-go-related gene (hERG) potassium channel (Q12809 whole entry, looked up): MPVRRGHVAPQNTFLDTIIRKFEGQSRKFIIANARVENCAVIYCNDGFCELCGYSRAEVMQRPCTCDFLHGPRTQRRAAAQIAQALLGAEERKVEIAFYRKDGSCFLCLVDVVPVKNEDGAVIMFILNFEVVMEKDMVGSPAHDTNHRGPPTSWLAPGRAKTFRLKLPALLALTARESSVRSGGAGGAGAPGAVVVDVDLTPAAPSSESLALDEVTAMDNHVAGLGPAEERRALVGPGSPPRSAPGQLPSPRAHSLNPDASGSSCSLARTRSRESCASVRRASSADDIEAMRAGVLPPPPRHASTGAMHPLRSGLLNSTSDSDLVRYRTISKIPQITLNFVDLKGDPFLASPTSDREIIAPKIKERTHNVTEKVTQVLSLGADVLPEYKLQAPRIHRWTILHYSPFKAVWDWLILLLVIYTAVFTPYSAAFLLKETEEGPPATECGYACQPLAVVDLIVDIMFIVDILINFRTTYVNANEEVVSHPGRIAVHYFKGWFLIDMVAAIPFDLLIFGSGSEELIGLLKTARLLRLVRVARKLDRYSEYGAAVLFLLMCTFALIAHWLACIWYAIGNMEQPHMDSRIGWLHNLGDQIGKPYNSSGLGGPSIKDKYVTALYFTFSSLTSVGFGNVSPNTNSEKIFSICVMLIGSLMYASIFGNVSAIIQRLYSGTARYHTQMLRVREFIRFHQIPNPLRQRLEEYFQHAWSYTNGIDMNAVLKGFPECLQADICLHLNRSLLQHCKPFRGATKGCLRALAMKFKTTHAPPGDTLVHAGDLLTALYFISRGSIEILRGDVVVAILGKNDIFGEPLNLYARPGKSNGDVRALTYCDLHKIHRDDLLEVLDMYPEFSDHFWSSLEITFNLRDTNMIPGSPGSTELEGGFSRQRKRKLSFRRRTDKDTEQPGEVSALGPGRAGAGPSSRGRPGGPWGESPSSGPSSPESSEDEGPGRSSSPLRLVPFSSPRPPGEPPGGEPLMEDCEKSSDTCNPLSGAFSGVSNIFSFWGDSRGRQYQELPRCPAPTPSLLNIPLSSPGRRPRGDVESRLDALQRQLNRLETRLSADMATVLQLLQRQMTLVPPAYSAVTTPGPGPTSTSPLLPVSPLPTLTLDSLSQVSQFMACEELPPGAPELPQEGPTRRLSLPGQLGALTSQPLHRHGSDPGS

SMILES | hERG current change (%, negative = inhibition) at 10uM
CC(C)(C)OC(=O)N[C@@H](Cc1ccccc1)C(=O)NCC1CCC(C(=O)N[C@@H](CC(=O)O)C(=O)O)CC1 (stereo partly shown) | 28.4%
CCCCc1[nH]c(=O)c(C#N)c2c1CSC(C)(C)C2 | 7.18%
CCOC(=O)c1c(NC(=O)Cn2nc([N+](=O)[O-])c(Br)c2C)sc2c1CCC(C)C2 (stereo not shown) | 17.6%
CC(Cc1ccccc1)C(=O)N1CCN(C)CC1 (stereo not shown) | 14.4%
CC(=O)N1c2ccc(S(=O)(=O)N3CCCC(C(=O)NCc4ccccc4Cl)C3)cc2CC1C (stereo not shown) | -10.8%
O=C1NC2(CCCCCC2)C(=O)N1Cc1cccc([N+](=O)[O-])c1 | 1.22%
Cc1csc(NC(=O)CSCC(=O)O)c1-c1nc2ccccc2s1 | 6.16%
Cc1ccc(-c2nnn(CC(=O)N(c3ccccc3F)C(C(=O)NC3CCCC3)c3ccncc3)n2)o1 (stereo not shown) | 17.6%
COc1cccc(C(=O)NC(=S)Nc2ccc3c4c(cccc24)CC3)c1 | 2.15%
CC1=C(C(=O)OCC2CCCO2)C(c2cccc(O)c2)NC(=O)N1 (stereo not shown) | 7.76%
O=C(CCCN1C(=O)NC2(CCCC2)C1=O)N1CCN(S(=O)(=O)c2ccccc2)CC1 | 0.403%
CCC(=O)c1ccc(OCC(O)CNCc2ccc(F)cc2)cc1 (stereo not shown) | -52.2%
CCN1C(=O)CSC1=Nc1cccc(C(=O)O)c1 | 19.2%
CCOC(=O)N1CCN(C(=O)c2ccccc2NC(=O)c2ccc(Br)cc2)CC1 | -24.9%
O=C(c1cn(-c2ccccc2)nc1-c1cccs1)N(CCO)Cc1ccccc1 | -11.2%
O/N=C/c1ccc2cccc(OCc3ccccc3)c2n1 | 7.43%
COc1cccc(/C=N/NC(=O)C(c2ccncc2)N2CCOCC2)c1 (stereo not shown) | 11.1%
Cc1ccc(-n2nc3c(=O)n(CC(=O)NCCC4=CCCCC4)nc(C)c3c2C)cc1 | 2.08%
O=C(CN1C(=O)NC2(CCCC2)C1=O)Nc1ccc(S(=O)(=O)N2CCOCC2)cc1 | 10.4%
C=CC[C@H]1Cc2c(cccc2[N+](=O)[O-])[C@H](CC=C)N1 | -2.02%
O=C(O)c1ccc(S(=O)(=O)c2ccc([N+](=O)[O-])cc2[N+](=O)[O-])cc1 | 0.384%
COc1cccc(CN(C)CC(=O)NNC(=O)c2ccc(Cl)cc2)c1 | -12.5%
CCOC(=O)N1CCC(N2Cc3cccc(C(=O)Nc4ccc(OCC)cc4)c3C2=O)CC1 | 9.07%
COc1ccc(NC(=O)CSc2nc(N)c3cc4c(nc3n2)CCCC4)c(OC)c1 | -3.18%
COc1ccc(S(=O)(=O)N(Cc2ccccc2)Cc2nc3ccccc3c(=O)[nH]2)cc1 | -25.7%
CCOC(=O)CSc1nnc(-c2ccc(Cl)cc2Cl)o1 | -25.5%

SMILES | hERG current change (%, negative = inhibition) at 10uM
O=C(CN1CCC(n2nnc3ccccc32)CC1)Nc1ccc2c(c1)CCC2 | -39.3%
Cc1cc(C)c(S(=O)(=O)Nc2ccc3c(c2)CCC3)c(C)c1 | -0.42%
CCOc1ccc2oc(-c3ccccc3)c(C(=O)N3CCN(C)CC3)c2c1 | -9.67%
O=C(CN1C(=O)S/C(=C\c2ccccc2Cl)C1=O)NCCCn1ccnc1 | -44.5%
CC(=O)c1ccc(-c2ccc(Cn3c(C)nc4cc(N)c(C)nc43)cc2)cc1 | 17.7%
N#C/C(=C/c1cccs1)c1ccccn1 | 7.54%
CC(=O)c1c(N2CCC(C(N)=O)CC2)nc(=S)n(-c2ccccc2)c1C | -12.2%
Cc1nn(-c2ccccn2)c2nc(-c3cccs3)cc(C(=O)NCc3ccco3)c12 | -67.3%
O=C(CCC(=O)c1cccs1)OCc1ccc([N+](=O)[O-])cc1 | -26%
C#CCOCCOCCOCCNc1nc(N2CCN(C(=O)[C@H](CCC(=O)O)n3cc(C(N)CC(C)C)nn3)CC2)nc(N2CCN(C(=O)[C@H](Cc3ccc(O)cc3)n3cc(C(N)CC(C)C)nn3)CC2)n1.Cl (stereo partly shown) | -0.138%
OCCCn1c(C2CCCN2c2nc(-c3ccc(F)cc3)cs2)nc2cc(Cl)c(Cl)cc21 (stereo not shown) | -0.34%
O=C(COC(=O)C12CC3CC(CC(Cl)(C3)C1)C2)Nc1ccc2[nH]c(=O)[nH]c2c1 | 11.5%
CCOC(=O)C(Cc1ccccc1)NC(=O)CCc1nnc2ccc(N3CCCC3)nn12 (stereo not shown) | 1.11%
Cc1ccc(C(C)C)c(OCC(=O)NN=C(CCl)CCl)c1 | 7.07%
CCn1cc(C(=O)NCCCN2CC(C)CC(C)C2)c(=O)c2cc(S(=O)(=O)N(C)C3CCCCC3)ccc21 (stereo not shown) | -84.3%
S=C(NCCc1ccccc1)Nc1ccccc1 | 7.3%
CCCc1nc2oc3c(=O)[nH]cnc3c2c2c1CCCC2 | -56.5%
Cc1cc(-c2ccco2)n(CC(=O)NCc2ccccc2)n1 | 6.97%
Cc1cnc(NC(=O)CSc2nnc(-c3cccs3)n2C)s1 | -59.4%
CCOC(=O)C(CC)(CC)/C(C)=N/NC(=O)CC#N | 4.66%
Cc1ccc(C)c(NC(=O)CCCCCCCCCCC2COCCO2)c1 (stereo not shown) | -6.1%
COc1cc(CNc2nnnn2C)ccc1OCc1c(F)cccc1Cl | 0.756%
O=C(CS(=O)(=O)c1cn(Cc2ccc(F)cc2)c2ccccc12)N1CCOCC1 | -16.7%
CCN(CC)c1ccc(/C=N/n2c(-c3ccccc3Br)n[nH]c2=S)cc1 | 16.6%
COc1ccc(C2C3=C(CC(C)(C)CC3=O)OC(N)=C2[N+](=O)[O-])cc1 (stereo not shown) | 8.74%
CC1=C(CC(=O)NCC(=O)NCC(=O)O)c2cc(F)ccc2/C1=C/c1ccc(S(C)=O)cc1 (stereo not shown) | 8.36%
